Experimental data published in paper PMC9574860, “Chemical Toolkit for PARK7: Potent, Selective, and High-Throughput” (Journal of Medicinal Chemistry, 2022).
Among all 7,900 compounds or so, about 400 (5.1%) showed an effect of 50% or more. Some of the results follow.

The compounds below were run against Parkinson's disease protein 7 (PARK7/DJ1) (human, UniProt Q99497) (assay: primary screen, percent inhibition; read as competition with a fluorescent probe by fluorescence polarization; higher = more effect of the substance). Settings: 100 µM.
Description: The screen was conducted using the conditions as described above in 1536-well plates (Corning 3724) with a reaction volume of 8 μL per well. The compound library containing 7887 covalent fragments was purchased at Enamine Ltd. and received as 100 mM DMSO stocks in 384 well LDV Echo plates (Labcyte LP-0200). Stock solutions of 0.26 μM PARK7 and 80 nM JYQ-107 were prepared. Using a Labcyte Echo550 acoustic dispenser, 8 nL of the DMSO stock solution of the library compounds was transferred from the source plates into the empty 1536-well screening plates to obtain a 100 μM final compound concentration. Next, PARK7 (6 μL, final concentration 0.2 μM) was dispensed using a Biotek MultiflowFX liquid dispenser and incubated for 2 h, followed by dispensing the probe JYQ-107 (2 μL, final concentration 20 nM). After 2 h incubation, the FP signal was recorded on a BMG Labtech PHERAstar plate reader (λex/em 480/520 nm). The relative loss of FP signal compared with reference controls was used to calculate the remaining enzyme activity.

Chain of Parkinson's disease protein 7 (PARK7/DJ1) (Q99497 whole entry, looked up, the tested form may be a part): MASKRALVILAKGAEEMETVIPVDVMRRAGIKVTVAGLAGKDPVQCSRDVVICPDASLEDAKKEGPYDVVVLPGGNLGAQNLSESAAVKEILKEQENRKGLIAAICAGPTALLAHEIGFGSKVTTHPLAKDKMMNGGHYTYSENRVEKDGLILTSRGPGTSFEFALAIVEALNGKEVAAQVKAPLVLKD

Structure (SMILES) | Inhibition % [%]
Cc1cc(Cn2c(-c3ccccc3C)noc2=O)no1 | 9.88
N#CC(=Cc1ccsc1)C(N)=O | 10.6
O=C(CCl)NNC(=O)c1cccs1 | 7.74
Cn1c(C(C#N)=Cc2cccnc2)nc2ccccc21 | 48.5
OB(O)c1ccc2c(c1)CCC2 | 6.42
C=CC(=O)NC1(c2ccccc2)CC1 | 13.8
C=CC(=O)N[C@H]1COC[C@H]1Oc1cnn(CC)c1 | 6.37
O=c1onc(-c2ncccn2)n1Cc1ccc(Cl)s1 | 2.32
Cc1conc1NS(=O)(=O)c1cccc(S(=O)(=O)F)c1 | 99
COc1ccc(Cl)cc1NC(=O)CCCl | 9.72
CCN(CC)C(=O)CSc1cccc(C#N)n1 | 3.91
Cc1ccc(N)cc1B1OC(C)(C)C(C)(C)O1 | 14.1
CNc1cc(C#N)ncn1.Cl | 5.73
O=C(CCl)Nc1c(Cl)cccc1Cl | 1.12
O=C(CCl)Nc1ccccc1C(=O)NC1CC1 | 7.53
C=CC(=O)Nc1cccnc1 | 7.7
Cl.O=C(CCl)NCC1(N2CCOCC2)CCCCC1 | 3.15
CN(C)C(=O)Oc1ccc(NC(=O)N2CCOCC2)cc1 | 4.77
CN(C)S(=O)(=O)c1cccc(NC(=O)CCl)c1 | 15.5
O=C1C(Cc2ccccc2)N=C(S)N1CC1CCCO1 (stereo not shown) | 2.33
CC1(C)NC(=O)C1(C)C | 2.57
COc1cccc(C2=NC(=Cc3cccnc3)C(=O)O2)c1 | 3.51
C=CC(=O)N1CCc2c(ncn2C)C1 | 24.3
C=CC(=O)N1C(C)CN(CC)CC1C (stereo not shown) | 18.5
CCNC(=O)C(C#N)=CC1=Cc2ccccc2OC1 | 1.81
C=CCN(C)C(=O)CCn1c(S)nc2ccccc2c1=O | 6.8
CC1COCCN1C(=O)C=Cc1nc2ccccc2o1 (stereo not shown) | 11.9

Structure (SMILES) | Inhibition % [%]
CCc1nccn1S(=O)(=O)c1ccc(F)c(C)c1 | 26.7
COc1cc(S(=O)(=O)n2cnc(C)c2)c(C)cc1C | 9.13
O=C(CN1CCSC1=O)Nc1ccc(Cl)cc1F | 6.77
O=C(c1cccc(S(=O)(=O)F)c1)N1CCCn2ncc(C3CC3)c21 | 6.74
O=C1CCC(=O)N1c1cccnc1 | 4.72
N#CC(=Cc1ccc2c(c1)OCCO2)C(N)=O | 4.34
COc1cccc2c1CCN(CC1OCCO1)CC2 | 13.1
CC1(C)C(=O)NC1C1CCN(C(=O)N2CCSCC2)CC1 (stereo not shown) | 2.2
N#CC(c1cccs1)N1CCN(C(=O)CCl)CC1 (stereo not shown) | 17.3
Cc1cccc2c(N)cc(S)nc12 | 3.88
O=C(CCl)NNC(=O)c1ccc(F)cc1 | 23.9
Cc1ccccc1CN(C)C1CCOC1=O (stereo not shown) | 8.98
CC1(C)OB(c2cccc(Cn3cccn3)c2)OC1(C)C | 4.09
COCc1n[nH]c(=O)o1 | 2.07
C=CC(=O)N1CCCCc2sccc21 | 8.81
O=C(C=Cc1ccncc1)N1CCOc2ccccc21 | 5.34
O=S(=O)(F)c1ccc(S(=O)(=O)Nc2ccnnc2)cc1 | 8.23
COc1ccc(NC(=O)CCCl)cc1 | 4.56
COc1ccc(-c2cc(CN3C(=O)CCC3=O)on2)cc1 | 2.16
C=CC(=O)N1CCCC(c2nccs2)C1 (stereo not shown) | 14.5
Cc1cc2[nH]ncc2cc1S(=O)(=O)F | 97.4
CC1(C)OB(c2cc(F)cc(OC(F)F)c2)OC1(C)C | 10.3
C=CC(=O)N1C[C@H](CC)CC[C@H]1C (racemic) | 10.5
CN(Cc1ccc(Cl)cc1)C(=O)CCl | 48.5
CN(CCO)c1ccnc(C#N)c1 | 7.91
c1ccc(COCC2CO2)cc1 (stereo not shown) | 7.44
C=CC(=O)N1CCC(S(=O)(=O)C(C)C)CC1 | 5.57

Structure (SMILES) | Inhibition % [%]
C=CC(=O)NCC(c1ccc(Cl)cc1)n1cccn1 (stereo not shown) | -2.82
OB(O)c1ccc(OC2CCCC2)cc1 | -3.51
Cc1nc(NC(=O)CCl)sc1C | 10.6
CCOc1ccc(Cl)cc1S(=O)(=O)n1ccnc1C | -1.43
CCOc1ccc(S(=O)(=O)n2ccc(C)n2)cc1C(C)C | -1.14
N#Cc1ncn(CCOc2ccc(Cl)cc2)n1 | 4.4
CCc1ccc(OC)c(S(=O)(=O)n2cc(C)nc2CC)c1 | 11.8
NC(=O)C1CCCC(n2c(S)nc3ccccc3c2=O)C1 (stereo not shown) | 7.16
O=C(CCCl)Nc1ccc(S(=O)(=O)N2CCCC2)cc1 | 3.33
C=CC(=O)NC1CCOC2(CCCCC2)C1 (stereo not shown) | 5.69
CC(C)C1NC(=O)C12CCC2 (stereo not shown) | 3.04
C=CC(=O)NC1COCc2ccccc21 (stereo not shown) | 9.84
CC(=O)Nc1ccc(NC(=O)CCl)cc1 | 4.19
CCN(c1ccc(C(=O)CCl)cc1)S(C)(=O)=O | 95.1
C=CC(=O)N1CCS(=O)(=O)CCC1C (stereo not shown) | 7.8
CCC(O)(CC)CNc1ccc(Cl)c(C#N)n1 | 6.75
N#Cc1nc(N2CCCC(CCO)C2)ccc1Cl (stereo not shown) | 9.52
C=CC(=O)Nc1ccc(N2CCCC2=O)c(F)c1 | 8.38
C=CC(=O)NC1CCN(c2c(F)cccc2F)C1=O (stereo not shown) | 15.3
COC(=O)C1Cc2ccccc2CN1C(=O)CCl (stereo not shown) | 22.7
C=CC(=O)NC1CCCC1 | 1.76
CN(Cc1ccc(F)cc1)C(=O)CCl | 39.9
C=CC(=O)N1C[C@H](F)C[C@H]1C(N)=O | 11.6
O=S(=O)(Oc1cccnc1F)c1c[nH]c2ncccc12 | 15.8
CCOc1cc(S(=O)(=O)n2ccnc2C)ccc1F | 10.6
